# Measured values reported in the supplement of paper PMC3334620.
# The full ranking holds about 33,000 sequences; the median of “E-score (-0.5 to 0.5)” is about -0.016, and the highest 2% start at about 0.32. The list shows a part of the results.
# Target: T1, Stp1 (UniProt B3LFK1)
# T1 sequence: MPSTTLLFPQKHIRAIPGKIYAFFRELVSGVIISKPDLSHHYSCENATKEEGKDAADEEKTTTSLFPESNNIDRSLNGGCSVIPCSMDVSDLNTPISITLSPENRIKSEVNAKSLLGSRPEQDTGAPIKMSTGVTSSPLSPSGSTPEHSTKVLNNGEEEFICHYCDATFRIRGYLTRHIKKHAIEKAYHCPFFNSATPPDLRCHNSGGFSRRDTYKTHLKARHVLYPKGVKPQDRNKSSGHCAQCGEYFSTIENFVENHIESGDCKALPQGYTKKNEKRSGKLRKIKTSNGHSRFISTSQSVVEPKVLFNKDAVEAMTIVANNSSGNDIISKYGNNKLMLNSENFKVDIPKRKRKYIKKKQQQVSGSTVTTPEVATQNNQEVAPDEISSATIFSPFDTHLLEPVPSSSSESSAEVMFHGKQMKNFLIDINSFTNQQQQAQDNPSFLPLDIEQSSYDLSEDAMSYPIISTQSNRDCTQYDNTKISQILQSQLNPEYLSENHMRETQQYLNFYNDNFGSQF
# Test: PBM E-score (8-mer binding enrichment) (E-score (-0.5 to 0.5)); higher = stronger / more preferred TF binding; most listed sequences are background and not binding sites
# Settings: protein concentration: 200 nM; construct: GST-full length
# Procedure, shortened: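 PURExpress in vitro transcription/translation supplied GST-tagged yeast transcription factors, either full-length or DNA-binding domain. Applied at about 100-200 nM to universal all-10-mer Agilent arrays double-stranded by primer extension, the bound protein was detected with fluorescent anti-GST. E-scores, modified Wilcoxon-Mann-Whitney statistics, were given by the Universal PBM Analysis Suite to ungapped eight-base words pooled with their reverse complements after masliner normalisation.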
row,Sequence,PBM E-score
1,GCTTATCC,-0.0517
2,ATCAGGAT,0.0944
3,CTTCAAAG,0.0712
4,CCAGGTAG,-0.222
5,CAGTCCAC,-0.13
6,ACATCAAA,-0.00264
7,CCAAAGGA,-0.101
8,GGATCGAC,0.0234
9,ACCGTACG,0.151
10,ACAACCCT,-0.228
11,ATTTGAAA,0.111
12,ATCCGGTA,-0.169
13,AGAATTTC,-0.103
14,AGAGATGC,-0.138
15,ATGTCCAG,-0.126
16,ATCCGGAT,-0.0475
17,AACTGCAT,0.115
18,TGACGCAA,-0.0616
19,CCAGCTTA,-0.0984
20,AATATAAG,0.32
21,GGCAGAGA,0.111
22,CACCGGCG,0.193
23,AATACTGT,0.249
24,AACCTGAT,0.0885
25,TAATGTGA,-0.024

row,Sequence,PBM E-score
1,ATGGAGCC,0.0188
2,AGTGGGGG,-0.308
3,AGAAGTTG,-0.182
4,AATATGCT,0.0269
5,ACGAATCA,0.0929
6,CGGCCATC,-0.115
7,CAATCCTC,-0.155
8,AAGCACTG,-0.0483
9,TATAAGCA,0.154
10,GTACCTGA,-0.0765
11,CCCCGGGC,-0.211
12,CTGTGGAC,-0.287
13,CAAGGCAC,0.356
14,GTAGTTCA,-0.191
15,CCGTTTGC,0.284
16,GAGGACTC,-0.365
17,AGATATTG,0.0872
18,AACTCCTA,-0.0956
19,ACAGTACG,-0.0233
20,GATACGAA,-0.0507
21,CCGCAATA,0.0622
22,CAACAAAG,-0.0202
23,GACGCCGC,0.453
24,ACCCGGCA,0.108
25,GGTGCTTA,-0.103

row,Sequence,PBM E-score
1,ACTCTATC,-0.0604
2,CAAATCGA,-0.0746
3,ATACGTTC,-0.0285
4,GCGTGAAC,-0.00583
5,CTATGAAG,-0.0397
6,AAGGTGGC,-0.145
7,CGTTTGAA,0.29
8,CGTACGAG,0.18
9,AATAGTAC,0.0128
10,CGATGAGC,-0.101
11,ATCGGGCG,-0.25
12,ATGCGCAT,0.144
13,AGCCTCAC,0.0764
14,CCGAATGA,0.0311
15,CGGCGCAC,0.409
16,AATGAACC,0.00909
17,ACCACCGT,-0.123
18,AATATTCC,0.202
19,ACGGGGGG,-0.313
20,AGTAGGGA,0.203
21,CTACGCTC,-0.203
22,ATCTCCTC,-0.209
23,AGTAAAAA,0.13
24,GCTCTGTA,-0.0805
25,AAGGGTTA,0.00685

row,Sequence,PBM E-score
1,AAATAATT,0.174
2,ATTTTGCG,0.123
3,CCGTCGAG,0.104
4,GCGCCCCC,-0.129
5,AGAGAACG,-0.0869
6,ATGTTTAA,-0.0475
7,AGGCGCGC,0.308
8,CTCCTGCA,-0.244
9,ATACTGTC,0.113
10,AGAAGTCA,-0.00985
11,GCTTTCAA,0.0639
12,CGTGCCAC,0.232
13,CATCCGAG,-0.122
14,GGCACACA,0.231
15,CGTGTTAA,0.108
16,CGACAGAA,0.174
17,GAGTCTAA,-0.0843
18,ACAAAGGG,-0.154
19,CGGCTACG,0.25
20,AGCGTGGA,-0.163
21,CGGTTCAA,-0.0478
22,GGGGTAAC,-0.212
23,GGAGCTCA,-0.177
24,ATTGCTAG,-0.0468
25,ACAGGCTC,-0.0278

row,Sequence,PBM E-score
1,AACATCGA,0.0516
2,CACAGCCG,0.327
3,CTCAGAAC,0.14
4,AGTCCTTA,-0.0931
5,CCGTTAAA,-0.00395
6,ATCACAAA,0.103
7,GCCAGGGA,-0.0384
8,CAGCCATC,-0.158
9,AGCGGGCG,-0.0865
10,ATACTACG,0.0658
11,CTATCCGC,0.219
12,GACCCAGC,-0.322
13,CTTATTGA,-0.0166
14,CAGGTCGG,-0.269
15,GCAGGAGA,-0.303
16,ACCACTTA,-0.0255
17,AGGCTTAG,0.0212
18,GCAAGGAA,0.0142
19,CAAAGTAC,0.0934
20,CACGAATA,0.031
21,AATTAAAC,0.122
22,AGATTCTA,0.152
23,ACCCGTAT,0.228
24,GCGTCTAC,-0.155
25,AGATATCT,-0.156

row,Sequence,PBM E-score
1,CTCGGTAA,-0.0899
2,AACAACAC,0.0941
3,CCATTCGG,0.14
4,AAGAGACT,-0.114
5,AAGCTTAT,0.162
6,AGATGGGC,-0.0834
7,TAGTAATA,0.151
8,ACTACCAT,-0.0853
9,ACTAGGGA,-0.282
10,ACGCCGAA,0.21
11,CAATAGGA,-0.016
12,CGAACCCG,0.0113
13,ACAAACGC,0.252
14,AACATTAC,0.0608
15,CATCAATA,-0.0571
16,CGAAACCA,0.194
17,ACCGATAT,-0.00052
18,CGTACGTA,0.205
19,AGCGCAGA,-0.0529
20,CGCGAAAC,0.0675
21,CGCCGGTA,-0.0704
22,CACGGGAG,-0.0449
23,CAGCCGAA,0.0173
24,ACGGGCCT,-0.00739
25,AAACTATT,-0.0623

row,Sequence,PBM E-score
1,GATCCGGC,-0.00579
2,CTCATATA,0.111
3,CGCATCCC,-0.175
4,GTTAAGTA,0.0335
5,AATATCGA,0.00691
6,ATGAATCC,-0.0822
7,CTGATGCA,-0.0407
8,ATGGTGAA,-0.0613
9,AAAACTAA,0.215
10,GCATTCCA,-0.00176
11,CCAGTGCG,-0.343
12,CATGTTGC,0.0394
13,ACCAATTC,-0.074
14,CGGCTCCA,0.425
15,CAAACAGA,0.0727
16,ATTCCGCC,0.125
17,CCGATGAC,-0.121
18,CCACTCGG,-0.0432
19,TATACGCA,0.156
20,AGTCGCGC,0.0334
21,ACAGCGAT,-0.163
22,CGTCCTGC,-0.219
23,CGATGACC,-0.31
24,ATCTTTAG,0.0678
25,ACAAGCGT,-0.135

row,Sequence,PBM E-score
1,ATGATAAG,0.0844
2,AATAAGGT,-0.117
3,ATCTAGGA,-0.116
4,ACACGGTG,0.154
5,CGGATCGA,0.0223
6,AAAGGCGA,0.0862
7,GGCGCTAC,0.269
8,CCACGGTC,-0.301
9,ACGACCAT,-0.324
10,CCAACCCA,-0.358
11,ATTCAGGC,0.0861
12,AGGTCAAT,-0.0414
13,AGAGCGTC,-0.166
14,GGCAGCTA,0.047
15,GTGCATCA,0.0717
16,AAGGCAGG,-0.236
17,AACGTGAG,-0.0998
18,AGCGGTAT,0.101
19,AATATTCT,-0.0438
20,CAGAACTG,0.197
21,CGGACCCA,-0.0338
22,CAGCCAAC,-0.242
23,CTATATAA,0.00322
24,ATTCCTAG,-0.0362
25,ACGGCTTG,0.335

row,Sequence,PBM E-score
1,CGGTGTGC,-0.132
2,TATCTGGA,-0.199
3,ACTTCTAC,0.0115
4,AGCGTGTC,-0.251
5,CGCCGACA,0.13
6,CACGCCGC,0.417
7,ACTGTACA,-0.116
8,TAAAAAAA,0.146
9,GGTTGAGA,-0.0845
10,CTATATGA,0.0978
11,TCCTGACA,0.012
12,ACCAGGAT,-0.0689
13,CCTCCGGC,-0.192
14,ACACCAAT,0.0311
15,CAATAAGG,0.0114
16,GCAATTAC,0.256
17,TAATCAAA,0.13
18,AAACCTAT,0.00219
19,ATGGCGGC,0.158
